# In the supplement of paper PMC8728848:
# This is one part of the list.
# B1: SAOUHSC 00176 (Staphylococcus aureus) (protein)
# chain: MSKILKCITLAVVMLLIVTACGPNRSKEDIDKALNKDNSKDKPNQLTMWVDGDKQMAFYKKITDQYTKKTGIKVKLVNIGQNDQLENISLDAPAGKGPDIFFLAHDNTGSAYLQGLAAEIKLSKDELKGFNKQALKAMNYDNKQLALPAIVETTALFYNKKLVKNAPQTLEEVEANAAKLTDSKKKQYGMLFDAKNFYFNYPFLFGNDDYIFKKNGSEYDIHQLGLNSKHVVKNAERLQKWYDKGYLPKAATHDVMIGLFKEGKVGQFVTGPWNINEYQETFGKDLGVTTLPTDGGKPMKPFLGVRGWYLSEYSKHKYWAKDLMLYITSKDTLQKYTDEMSEITGRVDVKSSNPNLKVFEKQARHAEPMPNIPEMRQVWEPMGNASIFISNGKNPKQALDEATNDITQNIKILHPSQNDKKGD
# What was measured:
# Test in all cases: glycan array binding signal (z-score within array); higher = stronger binding
# Conditions in all cases: glycan notation: IUPAC condensed, linker removed
# [1] = target: Fuc(a1-2)Gal(b1-4)GlcNAc(b1-3)Gal(b1-4)GlcNAc(b1-3)Gal(b1-4)GlcNAc
# How it was run: (§1)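 From the Consortium for Functional Glycomics database, 3228 arrays were curated, keeping only those whose protein sequence was available. Binding is given as a within-array Z-score averaged across arrays sharing a protein sequence and across linkers. Negative Z-scores can be read as non-binding.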
# [2] = target: Fuc(a1-2)Gal(b1-4)GlcNAc(b1-3)GalNAc
# How it was run: as §1
# [3] = target: Fuc(a1-2)Gal(b1-4)GlcNAc(b1-3)[Fuc(a1-2)Gal(b1-4)GlcNAc(b1-6)]GalNAc
# How it was run: as §1
# [4] = target: Fuc(a1-2)Gal(b1-4)GlcNAc(b1-3)[Fuc(a1-3)[Gal(b1-4)]GlcNAc(b1-6)]Gal(b1-4)Glc
# How it was run: as §1
# [5] = target: Fuc(a1-2)Gal(b1-4)GlcNAc(b1-6)GalNAc
# How it was run: as §1
# [6] = target: Fuc(a1-2)Gal(b1-4)GlcNAc6S
# How it was run: as §1
# [7] = target: Fuc(a1-2)Gal(b1-4)[Fuc(a1-3)]GlcNAc
# How it was run: as §1
# [8] = target: Fuc(a1-2)Gal(b1-4)[Fuc(a1-3)]GlcNAc(b1-2)Man(a1-3)[Fuc(a1-2)Gal(b1-4)[Fuc(a1-3)]GlcNAc(b1-2)Man(a1-6)]Man(b1-4)GlcNAc(b1-4)[Fuc(a1-6)]GlcNAc
# How it was run: as §1
# [9] = target: Fuc(a1-2)Gal(b1-4)[Fuc(a1-3)]GlcNAc(b1-2)[Fuc(a1-2)Gal(b1-4)[Fuc(a1-3)]GlcNAc(b1-4)]Man(a1-3)[Fuc(a1-2)Gal(b1-4)[Fuc(a1-3)]GlcNAc(b1-2)Man(a1-6)]Man(b1-4)GlcNAc(b1-4)GlcNAc
# How it was run: as §1
# [10] = target: Fuc(a1-2)Gal(b1-4)[Fuc(a1-3)]GlcNAc(b1-3)Gal(b1-4)[Fuc(a1-3)]GlcNAc
# How it was run: as §1
# [11] = target: Fuc(a1-2)Gal(b1-4)[Fuc(a1-3)]GlcNAc(b1-3)Gal(b1-4)[Fuc(a1-3)]GlcNAc(b1-3)Gal(b1-4)[Fuc(a1-3)]GlcNAc
# How it was run: as §1
# [12] = target: Fuc(a1-2)Gal(b1-4)[Fuc(a1-3)]GlcNAc(b1-3)GalNAc
# How it was run: as §1
# [13] = target: Fuc(a1-2)Gal(b1-4)[Fuc(a1-3)]GlcNAc(b1-3)[Neu5Ac(a2-6)Gal(b1-4)GlcNAc(b1-6)]Gal(b1-4)Glc
# How it was run: as §1
# [14] = target: Fuc(a1-2)Gal3S(b1-4)GlcNAc
# How it was run: as §1
# [15] = target: Fuc(a1-2)Gal6S(b1-3)GlcNAc
# How it was run: as §1
# [16] = target: Fuc(a1-2)Gal6S(b1-3)GlcNAc6S
# How it was run: as §1
# [17] = target: Fuc(a1-2)Gal6S(b1-4)Glc
# How it was run: as §1
# [18] = target: Fuc(a1-2)Gal6S(b1-4)Glc6S
# How it was run: as §1
# [19] = target: Fuc(a1-2)[Gal(a1-3)]Gal
# How it was run: as §1
# [20] = target: Fuc(a1-2)[Gal(a1-3)]Gal(b1-3)GalNAc
# How it was run: as §1
# [21] = target: Fuc(a1-2)[Gal(a1-3)]Gal(b1-3)GalNAc(b1-3)Gal(a1-4)Gal(b1-4)Glc
# How it was run: as §1
# [22] = target: Fuc(a1-2)[Gal(a1-3)]Gal(b1-3)GlcNAc
# How it was run: as §1
# [23] = target: Fuc(a1-2)[Gal(a1-3)]Gal(b1-3)GlcNAc(b1-2)Man(a1-3)[Fuc(a1-2)[Gal(a1-3)]Gal(b1-3)GlcNAc(b1-2)Man(a1-6)]Man(b1-4)GlcNAc(b1-4)GlcNAc
# How it was run: as §1
# [24] = target: Fuc(a1-2)[Gal(a1-3)]Gal(b1-3)GlcNAc(b1-2)Man(a1-3)[Fuc(a1-2)[Gal(a1-3)]Gal(b1-3)GlcNAc(b1-2)Man(a1-6)]Man(b1-4)GlcNAc(b1-4)[Fuc(a1-6)]GlcNAc
# How it was run: as §1
# [25] = target: Fuc(a1-2)[Gal(a1-3)]Gal(b1-3)GlcNAc(b1-3)GalNAc
# How it was run: as §1
# [26] = target: Fuc(a1-2)[Gal(a1-3)]Gal(b1-3)GlcNAc(b1-6)GalNAc
# How it was run: as §1
# [27] = target: Fuc(a1-2)[Gal(a1-3)]Gal(b1-4)Glc
# How it was run: as §1
# [28] = target: Fuc(a1-2)[Gal(a1-3)]Gal(b1-4)GlcNAc
# How it was run: as §1
# [29] = target: Fuc(a1-2)[Gal(a1-3)]Gal(b1-4)GlcNAc(b1-2)Man
# How it was run: as §1
# [30] = target: Fuc(a1-2)[Gal(a1-3)]Gal(b1-4)GlcNAc(b1-2)Man(a1-3)[Fuc(a1-2)[Gal(a1-3)]Gal(b1-4)GlcNAc(b1-2)Man(a1-6)]Man(b1-4)GlcNAc(b1-4)GlcNAc
# How it was run: as §1
# [31] = target: Fuc(a1-2)[Gal(a1-3)]Gal(b1-4)GlcNAc(b1-2)Man(a1-3)[Fuc(a1-2)[Gal(a1-3)]Gal(b1-4)GlcNAc(b1-2)Man(a1-6)]Man(b1-4)GlcNAc(b1-4)[Fuc(a1-6)]GlcNAc
# How it was run: as §1
# [32] = target: Fuc(a1-2)[Gal(a1-3)]Gal(b1-4)GlcNAc(b1-3)GalNAc
# How it was run: as §1
# [33] = target: Fuc(a1-2)[Gal(a1-3)]Gal(b1-4)GlcNAc(b1-3)[Fuc(a1-2)[Gal(a1-3)]Gal(b1-4)GlcNAc(b1-6)]GalNAc
# How it was run: as §1
# [34] = target: Fuc(a1-2)[Gal(a1-3)]Gal(b1-4)GlcNAc(b1-6)GalNAc
# How it was run: as §1
# [35] = target: Fuc(a1-2)[Gal(a1-3)]Gal(b1-4)[Fuc(a1-3)]Glc
# How it was run: as §1
# [36] = target: Fuc(a1-2)[Gal(a1-3)]Gal(b1-4)[Fuc(a1-3)]GlcNAc
# How it was run: as §1
# [37] = target: Fuc(a1-2)[Gal(a1-3)]Gal(b1-4)[Fuc(a1-3)]GlcNAc(b1-3)GalNAc
# How it was run: as §1
binder,measurement,setting,value
B1,glycan array binding signal (z-score),[1],-0.063
same,glycan array binding signal (z-score),[2],0.013
same,glycan array binding signal (z-score),[3],-0.136
same,glycan array binding signal (z-score),[4],-0.035
same,glycan array binding signal (z-score),[5],-0.032
same,glycan array binding signal (z-score),[6],-0.211
same,glycan array binding signal (z-score),[7],-0.084
same,glycan array binding signal (z-score),[8],-0.109
same,glycan array binding signal (z-score),[9],0.546
same,glycan array binding signal (z-score),[10],-0.122
same,glycan array binding signal (z-score),[11],-0.14
same,glycan array binding signal (z-score),[12],-0.173
same,glycan array binding signal (z-score),[13],-0.131
same,glycan array binding signal (z-score),[14],-0.135
same,glycan array binding signal (z-score),[15],-0.13
same,glycan array binding signal (z-score),[16],-0.127
same,glycan array binding signal (z-score),[17],-0.108
same,glycan array binding signal (z-score),[18],-0.14
same,glycan array binding signal (z-score),[19],0.117
same,glycan array binding signal (z-score),[20],-0.121
same,glycan array binding signal (z-score),[21],-0.177
same,glycan array binding signal (z-score),[22],-0.115
same,glycan array binding signal (z-score),[23],-0.052
same,glycan array binding signal (z-score),[24],0.042
same,glycan array binding signal (z-score),[25],-0.087
same,glycan array binding signal (z-score),[26],-0.086
same,glycan array binding signal (z-score),[27],-0.004
same,glycan array binding signal (z-score),[28],-0.128
same,glycan array binding signal (z-score),[29],-0.065
same,glycan array binding signal (z-score),[30],-0.01
same,glycan array binding signal (z-score),[31],0.027
same,glycan array binding signal (z-score),[32],-0.196
same,glycan array binding signal (z-score),[33],0.03
same,glycan array binding signal (z-score),[34],-0.115
same,glycan array binding signal (z-score),[35],-0.161
same,glycan array binding signal (z-score),[36],-0.07
same,glycan array binding signal (z-score),[37],-0.117
